Assay results: the supplement of paper PMC7238544
Where a name gives a salt, the structure may show the parent alone. ± gives the standard deviation of the averaged measurements. This is one part of the list.
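Note: compound added 30 min before Lipofectamine 3000 lipoplex delivery, triplicate-well means expressed against DMSO vehicle control wells of the same 96-well plate.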

The compounds below were run on hAMSC donor 1 (assay: Hoechst total cell count ratio vs vehicle control; hAMSC are human adipose-derived mesenchymal stem cells given an EGFP-luciferase plasmid by lipofection; higher = more cells (less toxicity)). Conditions: priming compound concentration 100 µM.
For `C=C(CC)C(=O)c1ccc(OCC(=O)O)c(Cl)c1Cl` [Ethacrynic acid], the “Hoechst total cell count ratio” value was 0.785 ± 0.16.
In the case of `CN(C)CCC=C1c2ccccc2CCc2ccccc21` [Amitriptyline hydrochloride], the “Hoechst total cell count ratio” value is reported as 1 ± 0.015.
For `C[C@]12C=CC(=O)C=C1CC[C@@H]1[C@@H]2C(=O)C[C@@]2(C)[C@H]1CC[C@]2(O)C(=O)CO` [Prednisone], the “Hoechst total cell count ratio” value was 1.21 ± 0.12.
For `Nc1nc(=O)c2nc(CNc3ccc(C(=O)N[C@@H](CCC(=O)O)C(=O)O)cc3)cnc2[nH]1` [Folic acid], the “Hoechst total cell count ratio” value was 0.89 ± 0.21.
`CC[C@H]1OC(=O)[C@H](C)[C@@H](O[C@H]2C[C@@](C)(OC)[C@@H](O)[C@H](C)O2)[C@H](C)[C@@H](O[C@@H]2O[C@H](C)C[C@H](N(C)C)[C@H]2O)[C@](C)(OC)C[C@@H](C)C(=O)[C@H](C)[C@@H](O)[C@]1(C)O` [Clarithromycin] was tested, and the “Hoechst total cell count ratio” value was 0.841 ± 0.053.
`CN1CCN(CCCN2c3ccccc3Sc3ccc(C(F)(F)F)cc32)CC1` [Trifluoperazine hydrochloride] was tested, and the “Hoechst total cell count ratio” value was 0.096 ± 0.054.
With `NNCCc1ccccc1` [Phenelzine sulfate] the “Hoechst total cell count ratio” value was 1.28 ± 0.088.
For `O=C(O[C@@H]1C[C@@H]2C[C@H]3C[C@H](C1)N2CC3=O)c1c[nH]c2ccccc12` [Dolasetron mesylate], the “Hoechst total cell count ratio” value was 1.2 ± 0.026.
In the case of `CC(C)NCC(O)c1ccc(NS(C)(=O)=O)cc1` (configuration not stated) [Sotalol hydrochloride], the “Hoechst total cell count ratio” value is reported as 1.27 ± 0.034.
`Cc1ncc([N+](=O)[O-])n1CC(O)CCl` (configuration not stated) [Ornidazole] was tested, and the “Hoechst total cell count ratio” value was 1.29 ± 0.12.
With `CNC(=N)NCCC[C@H](N)C(=O)O` [L-NMMA acetate] the “Hoechst total cell count ratio” value was 1.12 ± 0.12.
`C[C@]12CCC(=O)C=C1CC[C@@H]1[C@@H]2C(=O)C[C@@]2(C)[C@H]1CC[C@]2(O)C(=O)CO` [Cortisone] was tested, and the “Hoechst total cell count ratio” value was 1.49 ± 0.26.
